# The list shows a part of the results.
# B1: PX9937J-pdi-523-26-523 (Parabacteroides distasonis) (protein)
# chain: EPVSSISDANYWKSPDLFKAFNIGLHGLLRSQSSYNIFVLGEPRSDIYGDQPFGGEATQGVERFSYNTINAEFTGISNFANFYTTLNQINLMIRRTNETDLLGEAEKNYYLGQAYGLRAYIYFHLLRSWGDVIITTEPTLGSELDISHLDKAASPASEVMDLIKKDIDASEKAFGGDYSYKQGKCYWSKPATLMLKGEVYLWSGRQMGGGTGDYTVAKTALQDLQQNGNLKLQEKFTDVFSFNNKENSEMIFALHSGKEDDFMMWRDYNWRNNMVPQREYMAGYCDETGTPFLEIPGYNLQGLMRYQVKKDHYLKSFREGDTRLKGTLKAVYKKHEDGTLEYIAPIQYKFQGTTLEGSNERSWYDDYPIYRYADALLLLAEAKALLGEDPSTEINAVRERAYGSEYFNAHKNEVAYPNDKGSFYNDNPFEAGDENVMEAILKERLREFFFEGKRWYDLRRFGKDYVLKYTTAQESRLLWPINEGALTNNPALKQTPGY
# Tests used:
# Assay in all cases: glycan array binding signal (z-score within array); higher = stronger binding
# Conditions in all cases: glycan notation: IUPAC condensed, linker removed
# [1] = target: GlcNAc(b1-3)Gal(b1-4)GlcNAc(b1-3)Gal(b1-4)GlcNAc(b1-3)GalNAc
# In short: (§1)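 The binding signal is a Z-score computed within each array and averaged over linkers. Arrays of the same protein sequence at different concentrations or buffers were also averaged together. Data originate from 3228 arrays in the Consortium for Functional Glycomics database, kept only where the protein sequence was available.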
# [2] = target: GlcNAc(b1-3)Gal(b1-4)GlcNAc(b1-3)GalNAc
# In short: as §1
# [3] = target: GlcNAc(b1-3)Gal(b1-4)GlcNAc(b1-3)[GlcNAc(b1-3)Gal(b1-4)GlcNAc(b1-3)]GalNAc
# In short: as §1
# [4] = target: GlcNAc(b1-3)Gal(b1-4)GlcNAc(b1-6)[Gal(b1-3)]GalNAc
# In short: as §1
# [5] = target: GlcNAc(b1-3)Gal(b1-4)GlcNAc(b1-6)[GlcNAc(b1-3)Gal(b1-3)]GalNAc
# In short: as §1
# [6] = target: GlcNAc(b1-3)Gal(b1-4)GlcNAc(b1-6)[GlcNAc(b1-3)]Gal(b1-4)GlcNAc
# In short: as §1
# GlcNAc(b1-3)GalNAc = target: GlcNAc(b1-3)GalNAc
# In short: as §1
# GlcNAc(b1-3)Man = target: GlcNAc(b1-3)Man
# In short: as §1
# [7] = target: GlcNAc(b1-3)[GlcNAc(b1-4)][GlcNAc(b1-6)]GlcNAc
# In short: as §1
# [8] = target: GlcNAc(b1-3)[GlcNAc(b1-6)]Gal(b1-4)GlcNAc
# In short: as §1
# [9] = target: GlcNAc(b1-3)[GlcNAc(b1-6)]GalNAc
# In short: as §1
# [10] = target: GlcNAc(b1-4)Gal(b1-4)GlcNAc
# In short: as §1
# GlcNAc(b1-4)GlcNAc = target: GlcNAc(b1-4)GlcNAc
# In short: as §1
# [11] = target: GlcNAc(b1-4)GlcNAc(b1-4)GlcNAc
# In short: as §1
# [12] = target: GlcNAc(b1-4)GlcNAc(b1-4)GlcNAc(b1-4)GlcNAc(b1-4)GlcNAc
# In short: as §1
# [13] = target: GlcNAc(b1-4)GlcNAc(b1-4)GlcNAc(b1-4)GlcNAc(b1-4)GlcNAc(b1-4)GlcNAc
# In short: as §1
# [14] = target: GlcNAc(b1-4)[GlcNAc(b1-6)]GalNAc
# In short: as §1
# [15] = target: GlcNAc(b1-6)Gal(b1-4)GlcNAc
# In short: as §1
# GlcNAc(b1-6)GalNAc = target: GlcNAc(b1-6)GalNAc
# In short: as §1
# [16] = target: GlcNAc6S(b1-3)Gal(b1-4)GlcNAc
# In short: as §1
# Kdn(a2-3)Gal(b1-3)GalNAc = target: Kdn(a2-3)Gal(b1-3)GalNAc
# In short: as §1
# Kdn(a2-3)Gal(b1-3)GlcNAc = target: Kdn(a2-3)Gal(b1-3)GlcNAc
# In short: as §1
# Kdn(a2-3)Gal(b1-4)Glc = target: Kdn(a2-3)Gal(b1-4)Glc
# In short: as §1
# Kdn(a2-3)Gal(b1-4)GlcNAc = target: Kdn(a2-3)Gal(b1-4)GlcNAc
# In short: as §1
# [17] = target: Kdn(a2-3)Gal(b1-4)[Fuc(a1-3)]GlcNAc
# In short: as §1
# Kdn(a2-6)Gal(b1-4)GlcNAc = target: Kdn(a2-6)Gal(b1-4)GlcNAc
# In short: as §1
# [18] = target: Man(a1-2)Man(a1-2)Man(a1-3)Man
# In short: as §1
# [19] = target: Man(a1-2)Man(a1-2)Man(a1-6)[Man(a1-3)]Man
# In short: as §1
# Man(a1-2)Man(a1-3)Man = target: Man(a1-2)Man(a1-3)Man
# In short: as §1
# [20] = target: Man(a1-2)Man(a1-3)[Man(a1-2)Man(a1-6)]Man
# In short: as §1
# [21] = target: Man(a1-2)Man(a1-3)[Man(a1-2)Man(a1-6)]Man(a1-6)[Man(a1-2)Man(a1-2)Man(a1-3)]Man
# In short: as §1
# [22] = target: Man(a1-2)Man(a1-3)[Man(a1-2)Man(a1-6)]Man(a1-6)[Man(a1-2)Man(a1-2)Man(a1-3)]Man(b1-4)GlcNAc(b1-4)GlcNAc
# In short: as §1
# [23] = target: Man(a1-2)Man(a1-3)[Man(a1-6)]Man(a1-6)[Man(a1-2)Man(a1-3)]Man(b1-4)GlcNAc(b1-4)GlcNAc
# In short: as §1
# [24] = target: Man(a1-2)Man(a1-6)[Man(a1-3)]Man(a1-6)[Man(a1-2)Man(a1-2)Man(a1-3)]Man
# In short: as §1
# [25] = target: Man(a1-2)Man(a1-6)[Man(a1-3)]Man(a1-6)[Man(a1-2)Man(a1-2)Man(a1-3)]Man(b1-4)GlcNAc(b1-4)GlcNAc
# In short: as §1
# Man(a1-3)[Man(a1-6)]Man = target: Man(a1-3)[Man(a1-6)]Man
# In short: as §1
# [26] = target: Man(a1-3)[Man(a1-6)]Man(a1-6)[Man(a1-2)Man(a1-3)]Man(b1-4)GlcNAc(b1-4)GlcNAc
# In short: as §1
binder,measurement,setting,value
B1,glycan array binding signal (z-score),[1],-0.256
same,glycan array binding signal (z-score),[2],-0.404
same,glycan array binding signal (z-score),[3],0.136
same,glycan array binding signal (z-score),[4],-0.195
same,glycan array binding signal (z-score),[5],0.161
same,glycan array binding signal (z-score),[6],-0.16
same,glycan array binding signal (z-score),GlcNAc(b1-3)GalNAc,-0.622
same,glycan array binding signal (z-score),GlcNAc(b1-3)Man,-0.116
same,glycan array binding signal (z-score),[7],-0.736
same,glycan array binding signal (z-score),[8],-0.532
same,glycan array binding signal (z-score),[9],-0.1
same,glycan array binding signal (z-score),[10],-0.6
same,glycan array binding signal (z-score),GlcNAc(b1-4)GlcNAc,-0.151
same,glycan array binding signal (z-score),[11],-0.465
same,glycan array binding signal (z-score),[12],-0.657
same,glycan array binding signal (z-score),[13],-0.106
same,glycan array binding signal (z-score),[14],-0.306
same,glycan array binding signal (z-score),[15],-0.15
same,glycan array binding signal (z-score),GlcNAc(b1-6)GalNAc,-0.586
same,glycan array binding signal (z-score),[16],0.294
same,glycan array binding signal (z-score),Kdn(a2-3)Gal(b1-3)GalNAc,-0.296
same,glycan array binding signal (z-score),Kdn(a2-3)Gal(b1-3)GlcNAc,-0.418
same,glycan array binding signal (z-score),Kdn(a2-3)Gal(b1-4)Glc,0.055
same,glycan array binding signal (z-score),Kdn(a2-3)Gal(b1-4)GlcNAc,0.484
same,glycan array binding signal (z-score),[17],0.174
same,glycan array binding signal (z-score),Kdn(a2-6)Gal(b1-4)GlcNAc,-0.418
same,glycan array binding signal (z-score),[18],-0.508
same,glycan array binding signal (z-score),[19],-0.284
same,glycan array binding signal (z-score),Man(a1-2)Man(a1-3)Man,-0.138
same,glycan array binding signal (z-score),[20],-0.606
same,glycan array binding signal (z-score),[21],-0.317
same,glycan array binding signal (z-score),[22],-0.355
same,glycan array binding signal (z-score),[23],-0.697
same,glycan array binding signal (z-score),[24],-0.355
same,glycan array binding signal (z-score),[25],-0.628
same,glycan array binding signal (z-score),Man(a1-3)[Man(a1-6)]Man,-0.455
same,glycan array binding signal (z-score),[26],-0.614
